# Experimental data from the supplement of paper PMC10338343.
# ± gives the standard deviation. Only a part is listed here, and it is no random draw.
# Test system: MIWI (PIWIL1) piRISC loaded with piRNA #1 (30 nt)
# Test: pre-steady-state target cleavage rate (min^-1); MIWI and MILI are mouse PIWI proteins and EfPiwi is from a freshwater sponge; tags in brackets are library labels; higher = faster piRNA-guided slicing of the target
# Settings: guide: piRNA #1 5'p-UGAGGUAGUAGGUUGUAUAGUAUCCAGAGG; auxiliary factor: 500 nM mouse GTSF1
# Outline: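 In Cleave-'n-Seq, a transcribed, DNA-blocked target RNA library (0.1 nM) was combined with 1 nM active affinity-purified piRISC bearing one synthetic guide, with or without 500 nM GTSF1 partner protein. Reactions ran in HEPES–potassium acetate buffer at 33 °C for 0–8 or 0–960 min. Uncleaved targets were sequenced and normalised to depth and to weakly complementary targets, three trials were pooled, and k3 was capped at 0.0001 min^-1. The pre-steady-state cleavage rate was obtained by fitting a burst-and-steady-state model.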
row,Sequence,pre-steady-state target cleavage rate
1,GGAGACCAUACAAUACAUCCUACUACCUCA,0.4 ± 0.058
2,GGAGAGGUUACUAUACAACGUACUACCUCA,0.0314 ± 0.0079
3,GGAGACCAUACUAUACAACGUAGUACCUCA,0.123 ± 0.018
4,GGAGACGAUUGUAUACAACCUACUACCUCA,0.11 ± 0.013
5,CCUCUGAGAUACUAUACAACCUACUACCUCA,0.572 ± 0.056
6,CCUCUGGAUACUAUACAACCUAUACCUCA,0.0182 ± 0.0059
7,GGAGAGGAUACUAAUCAACCUACUACCUCA,1.01 ± 0.063
8,GGAGACCUAACUAUACAACCUUCUACGUCA,0.108 ± 0.023
9,GGAGACCUAUGUAUACAACGAUGAUGGAGA [g12:g19:cont:t1A],< 0.0001
10,GGAGACGAUACAAUACAUCCUACUACCUCA,0.972 ± 0.075
11,GGAGACGAUACUAUACAACCUACUACCUCA [g2:g24:cont:t1A],1.77 ± 0.11
12,CCUCAGGAUACAAUACAACCUACUACCUCA,2.01 ± 0.12
13,CCUCUGGUAACUAUACAACCUACUACCUCA,0.755 ± 0.035
14,GGUCUGGAUACUAUACCAACCUACUACCUCA,0.177 ± 0.044
15,GGAGACGUUACUAUACAACCUACUAGCUCA,0.434 ± 0.047
16,GGAGAGGAUACUAUACAAGCUACUACCACA,1.15 ± 0.056
17,GGAGUGGAUAGUAUACAACCUACUACCACA,0.0767 ± 0.022
18,GGAGACCUAUGUAUACAAGCUACUACGUCA,0.0294 ± 0.0057
19,GGACUGGAUACAUAACAACCUACUACCUCA,0.634 ± 0.11
20,GGAGUGGAUACUAUACAACCUACUCCCUCA,0.161 ± 0.019
21,GGAGACCAUACUAUAACAACCUACUACCUCA,0.984 ± 0.085
22,GGUCUGGAUUCUAUACAACCUACUACCACA,0.928 ± 0.073
23,GGAGUGGAUACAAUACAACCUACUACCACA,0.526 ± 0.045
24,GGAGACCAUACUAUACACCUACUACCUCA,0.074 ± 0.011
25,CCUCUGGAUAGCUAUACAACCUACUACCUCA,0.546 ± 0.032
26,GCAUCUGGAUACUAUACAACCUACUACCUCA,1.82 ± 0.087
27,GGAGACCUUACUUUUCAACCUACUACCUCA,0.0873 ± 0.012
28,GGAGACCUAUCUAUACAACCUAGUACCACA,0.184 ± 0.035

row,Sequence,pre-steady-state target cleavage rate
1,CCUCUCGAUAGUAUACAACCUACUACCUCA,1.4 ± 0.078
2,GGAGACCUAUGAUAUGUUCCUACUACCAGA,< 0.0001
3,GCUCUGGAUACUAUUACAACCUACUACCUCA,1.7 ± 0.12
4,GGUCUGCAUACUAUACUACCUACUACCUCA,1.43 ± 0.11
5,GGAGACCUUACUAUAGAACCUAGUACCUCA,0.0376 ± 0.0082
6,GGAGUGGAUAGUAUACAACCUAGUACCUCA,0.385 ± 0.034
7,GGAGACCUUACUAAACAACCUACUACCACA,0.318 ± 0.036
8,GGAGACCAUAGUAUACAACCUACUACCACA,0.594 ± 0.062
9,GGACUGGAUACUAUACAACGUACAACCUCA,0.443 ± 0.053
10,GGUCUGGUUACUAUACAACCUACUAGCUCA,0.105 ± 0.018
11,GGAGACGGUACUAUACAACCUACUACCUCA,1.47 ± 0.079
12,CCUCUGGUUACAAUACAACCUACUACCUCA,2.15 ± 0.13
13,GGUCUGGAUACUAUACAAACUACUACCUCA,0.79 ± 0.035
14,CCUCUGGUUACUAUACAACGUACUACCUCA,0.405 ± 0.026
15,GCUCUGGAUACUAUACAACCAACUACGUCA,0.0947 ± 0.012
16,GGAGACGAUACUAUACAACCUUCUACCUGA,0.288 ± 0.044
17,GGAGACCUAUGAUAUGUUCCUAGUACCUGA,< 0.0001
18,GGACUGGUUACUAUACAUCCUACUACCUCA,1.28 ± 0.13
19,GGAGUGGAAACUAUACAACCUACUACCUCA,1.58 ± 0.086
20,GGAGUGGAUACUAUACAACCUACUAUCUCA,0.972 ± 0.1
21,GCUCUGGAUAGUAUACAACCUUCUACCUCA,0.532 ± 0.033
22,GGAGUGGAUAUUAUACAACCUACUACCUCA,1.48 ± 0.072
23,GGACUGGAUACUAUACAACCUAGAACCUCA,0.0154 ± 0.004
24,GGAGAGGAUACUAUACAACCUACUACCCUCA,0.765 ± 0.072
25,GGAGACCUAUGUAUACAACCUACUACCCUCA,0.0949 ± 0.015
26,GGUCUGGAUACUAAACAACCUAGUACCUCA,0.409 ± 0.058
27,GGUCUGGAUAGUAUACAACCUACUAGCUCA,0.0144 ± 0.0064
